Data published in PubChem BioAssay AID588855 (National Center for Advancing Translational Sciences (NCATS), 2011).
“And” between values parts separate entries of the source, which are not always exact repeats. Equal entries are not always repeated. Among all 410,000 compounds or so, about 5,000 (1.2%) were called active. The shares of active, inactive and inconclusive entries below differ from those in the screen. Calls follow the shape of the dose curve; as a rule, active = well fitted inhibition curve with a large enough effect; inconclusive = small, poorly fitted or top-dose-only effect; inactive = no such curve, though single readings can be large or run the other way. Potencies of inconclusive entries are doubtful fits and often do not repeat.

Assay: qHTS for Inhibitors of TGF-b; also: nearly all actives have a fitted effect of over 65% in size
Conditions: HepG2 CAGA-GFP TGF-b/SMAD3 reporter, GFP fluorescence, 18 h, TGF-beta stimulated, 500 pg/mL final; series mostly up to 46.1 µM
In short: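 HEPG2 CAGA-GFP, 1000 cells/well; 2 h settle, 37 C; cpd via pin tool; TGF-b 500 pg/mL final; 18 h, 37 C; GFP imaging ex488/em500-530; %Activity normalised to -TGF-b and +DMSO controls; CRC fit, curve class.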
Potency is read from the fitted curve at half-maximal effect; tags tell the direction and shape of the fitted curve.

SMILES | Potency
Cc1ccc(C(c2c(O)cc(C)n(Cc3ccco3)c2=O)N2CCC(C)CC2)cc1 (configuration not stated) | inconclusive: 3.55 µM [inhibitor, single point]
Cc1ccccc1Cn1c2ccccc2c2cn[nH]c(=O)c21 | inconclusive: 15.8 µM [inhibitor, single point]
O=C(NCc1ccccc1)C(=O)Nc1c2c(nn1-c1ccccc1)CSC2 | inconclusive: 35.5 µM [inhibitor, single point]
COc1cccc(OC)c1-c1cnc(NC(C)=O)cn1 | inconclusive: 35.5 µM [inhibitor, single point]
CC(C)(C)c1ccc(Cn2cnc3c(cnn3C(C)(C)C)c2=O)cc1 | inactive
COc1ccc(-c2oc3ncnc(N)c3c2-c2ccccc2)cc1 | inconclusive: 3.98 µM [inhibitor, full curve]
Cc1ccccc1N1CCN(C2CCCN(C(=O)c3ccnn3C)C2)CC1 (configuration not stated) | inconclusive: 0.891 µM [inhibitor, full curve, poor fit]
CC[N+](C)(C)c1ccc(/C=C/c2ccnc3ccccc23)cc1 | active: 11.2 µM
Cc1cc(-c2ccc(C)c(S(=O)(=O)NCC3CCN(Cc4ccccc4F)CC3)c2)on1 | inconclusive: 11.2 µM [inhibitor, partial curve, poor fit] and inconclusive: 25.1 µM [inhibitor, single point]
COc1ccc(-c2noc(Cc3ccccc3OC)n2)cc1 | inconclusive: 25.1 µM [inhibitor, single point]
COc1cccc(-c2csc(N3CCN(CC(=O)NNC(=O)c4ccc(Cl)cc4)CC3)n2)c1 | inconclusive: 1.26 µM [inhibitor, partial curve, poor fit]
CC(C)c1ccc(NC(=O)Nc2nc(C(C)N)cs2)cc1 (configuration not stated) | active: 17.8 µM
CN(C)S(=O)(=O)c1ccc(NC(=O)c2ccc([N+](=O)[O-])cc2)cc1 | inactive
COCCN(CC1CCCN(C2Cc3ccccc3C2)C1)C(=O)CCC(C)=O (configuration not stated) | inactive
Cc1ccc(-c2ccc(CN3C(C(C)C)C(=O)N(Cc4cn(CCC5OCCO5)nn4)CCS3(=O)=O)cc2)c(C)c1 (configuration not stated) | active: 11.2 µM
O=C(Nc1ccccc1N1CCOCC1)c1ccc([N+](=O)[O-])cc1 | inconclusive: 0.112 µM [inhibitor, full curve, poor fit]
FC(F)(F)c1ccccc1/C=N/n1c(C2CCCCC2)n[nH]c1=S | inconclusive: 35.5 µM [inhibitor, single point]
C=CCn1c(C)cc(C(=O)CN2NS(=O)(=O)c3ccccc3C2=O)c1C | inconclusive: 10 µM [inhibitor, partial curve, poor fit]
O=S(=O)(c1ccc(Oc2ccc3c(c2)OCO3)c(S(=O)(=O)N2CCOCC2)c1)N1CCOCC1 | inactive
Cc1ccc(C(=O)C(C)OC(=O)c2cc3cc([N+](=O)[O-])ccc3oc2=O)cc1 (configuration not stated) | inconclusive: 10 µM [inhibitor, partial curve, poor fit]
CCc1cccc(CC)c1NC(=O)NC1CCCCC1 | inactive

SMILES | Potency
CCc1cc(-c2nnn(CCC3COCCO3)c2CC)ccc1-c1cn(Cc2ccccc2)nn1 (configuration not stated) | inconclusive: 10 µM [inhibitor, partial curve]
C[C@@H]1CN(C(=O)c2nc3ccc(Cl)cn3c2CN2CCc3sccc3C2)C[C@H](C)O1 | inactive
CCN(CC)S(=O)(=O)c1ccc(N2CCN(S(=O)(=O)c3ccc4c(c3)OCCO4)CC2)nc1 | inconclusive: 7.08 µM [inhibitor, full curve]
CC[C@@H]1Cc2cc(O)ccc2C2=C1c1ccc(O)cc1C[C@H]2CC | inconclusive: 35.5 µM [inhibitor, single point]
O=S(=O)(c1ccc2nc(N3CCN(c4ccccc4F)CC3)ccc2c1)N1CCCCC1 | inactive
O=C(NC1CCCCCC1)C1CCN(S(=O)(=O)c2ccc(F)cc2)CC1 | inconclusive: 3.16 µM [inhibitor, single point]
COc1cc(C#Cc2c(-c3cncn3C)n(C)c3ccc(-c4ccc(CN5CCOCC5)cc4)cc23)cc(OC)c1 | inconclusive: 20 µM [inhibitor, single point]
CSc1ccccc1NC(=O)CSc1n[nH]c(C)c1[N+](=O)[O-] | inconclusive: 17.8 µM [inhibitor, partial curve, poor fit]
COc1ccc2c(c1)c1c(c(=O)n(-c3cccc(C)c3)c(=O)n1Cc1cccc(Cl)c1)n2C | inactive
COCCn1c(SCC(=O)N2CCCCC2)nc2ccccc2c1=O | inactive
COc1ccc(OC)c(CN2CCN(C(=O)CNC(=O)c3ccc(C(C)(C)C)cc3)CC2)c1 | inconclusive: 35.5 µM [inhibitor, partial curve, poor fit]
COc1ccccc1NC(=O)CN1CCN(Cc2ccccc2)CC1 | inactive
O=C1Nc2cc(C(=O)NCCCN3CCOCC3)ccc2S/C1=C/c1ccccc1F | inactive
O=[N+]([O-])c1ccc(Nc2ccc(Cl)cc2)nc1 | inconclusive: 35.5 µM [inhibitor, single point]
O=C(Nc1ccccc1C(=O)N/N=C/c1ccco1)c1ccc(F)cc1 | inconclusive: 35.5 µM [inhibitor, single point]
COc1ccccc1C(=O)N1c2ccccc2Sc2ccccc21 | inconclusive: 35.5 µM [inhibitor, single point]
CCC(=O)Nc1nc(CC(=O)Nc2ccccc2)cs1 | inconclusive: 5.62 µM [inhibitor, single point]
O=C1NC(=S)/C(=C\c2ccc(-c3ccccc3Cl)o2)S1 | inconclusive: 22.4 µM [inhibitor, single point]
Cc1ccc(OCCNS(=O)(=O)c2ccc(Cl)cc2)cc1 | inactive
O=C(N/N=C/c1ccco1)/C(=C/c1cccc([N+](=O)[O-])c1)NC(=O)c1ccccc1 | inconclusive: 35.5 µM [inhibitor, single point]
O=C1CC(c2cc([N+](=O)[O-])ccc2Cl)c2c(ccc3ccccc23)N1 (configuration not stated) | inconclusive: 4.47 µM [inhibitor, full curve, poor fit]
